The values that follow come from ChEMBL document CHEMBL1157539, “Thousands of chemical starting points for antimalarial lead identification” (Nature, 2010).

Where “and” joins values, the source holds several entries; their conditions need not be identical. Equal entries are not always repeated. Whole data set: some 13,000 compounds, median “IFI” near 4, cut for the highest 2% near 17. This is one part of the list.

The assay is described as follows: GSK_TCMDC: Inhibition Frequency Index (IFI). The number of non-kinase HTS assays where a compound showed > 50 % inhibition, expressed as a percentage of the number of such assays in which the compound was tested (-0 is zero). It counts as functional.
In turn, `Clc1ccc2nccc(N3CCC(CN4CCC(c5c[nH]c6ccccc56)CC4)CC3)c2c1` had an IFI of 4.62%. In the case of `CCC(C)CN1CCC(N(C)c2cc(NC(=O)c3ccc(F)cc3)ccn2)CC1` (centres undefined) it was 5.56%. `COc1ccc(NC(=S)NC(NC(=O)CF)C(Cl)(Cl)Cl)cc1[N+](=O)[O-]` (centres undefined) returned an IFI of -0%. In the case of `O=C(CCCCCc1ccccc1)NC1CCC(CN2CCC(c3c[nH]c4ccccc34)CC2)CC1` (centres undefined) it was 5%; in that of `CN(c1cc(NC(=O)c2cccs2)ccn1)C1CCN(Cc2cccc(C#N)c2)CC1`, 6.98%; in that of `CC(=O)Nc1ccc(OCCN(CC(F)(F)F)c2ccc(C#N)cc2C(F)(F)F)cc1`, 2.96%. `CC(C)CNCc1ccc(-c2cccc(CN(C(=O)NC3CCCCC3)C3CCN(Cc4ccccc4)CC3)c2)cc1` gave an IFI of 8.09%. Turning to `O=C(NC1CCC(CN2CCC(c3c[nH]c4ccccc34)CC2)CC1)c1cc(-c2cccc(Cl)c2)n(-c2ccc(Cl)cc2Cl)n1` (centres undefined), the IFI is 7.75%. The same measure for `CC[C@H]1CN2CC[C@H]1C[C@H]2[C@H](O)c1ccnc2ccc(OC)cc12`: 0.73%; for `CC[C@H]1CN2CCc3cc(OC)c(OC)cc3[C@@H]2C[C@@H]1C[C@H]1NCCc2c1cc(OC)c(O)c2I`: 9.6%. The same measure for `CCCCCCCCNCC(O)c1ccc(Cl)c(Cl)c1` (centres undefined): 11.1%; for `O=C(NCc1ccc(S(=O)(=O)N2CCC(CN3CCC(c4c[nH]c5ccccc45)CC3)CC2)s1)c1ccccc1`: 6.85%; for `CN1C2CCC1c1cc(NC(=O)c3cc(-c4ccc(Cl)cc4)cs3)ccc12` (centres undefined): 13.3%. `O=C(C=Cc1ccc(F)c(Br)c1)N1CCC(CN2CCC(c3c[nH]c4ccccc34)CC2)CC1`: the IFI is 6.62%. The same measure for `OC1(CNCc2ccccc2)CCN(CCc2c[nH]c3ccc(F)cc23)CC1`: 4.93%. In the case of `CS(=O)(=O)Nc1ccc2[nH]cc(C3CCN(CC4CCC(NC(=O)/C=C/c5ccc(Cl)c(Cl)c5)CC4)CC3)c2c1` (centres undefined) it was 3.65%; in that of `CC[C@H]1CN2CC[C@H]1C[C@H]2[C@H](O)c1cc(N2CCCC2)nc2ccc(OC)cc12`, -0%. The same measure for `COc1cc2c(c(OC)c1OC)C[C@H]1c3c(cc4c(c3-2)OCO4)CCN1C`: 0.74%; for `Cc1cccc(C(=O)Nc2ccnc(N(C)C3CCN(CC(C)C)CC3)c2)c1`: 2.78%; for `CS(=O)(=O)Nc1ccc2c(C3CCN(CC4CCN(C(=O)/C=C/c5ccc(Cl)c(Cl)c5)CC4)CC3)c[nH]c2c1`: 2.88%. Turning to `CCCc1c(C(=O)NC2CCC(CN3CCC(c4c[nH]c5ccccc45)CC3)CC2)cnn1-c1c(Cl)cc(Cl)cc1Cl` (centres undefined), the IFI amounted to 9.93%.

`COC(=O)c1ccc(CC(C)NCC(O)c2cccc(Oc3cccc(C(F)(F)F)c3)c2)cc1` (centres undefined) showed an IFI of 11.3%. In the case of `Oc1ccc(Cl)cc1CN1CCC(CCOC(c2ccccc2)c2ccccc2)CC1` it was 0.78%. The same measure for `Cc1nc2ccccc2n1C1CC2CCC(C1)N2Cc1nccn1-c1ccccc1` (centres undefined): 3.39%; for `CCOC(C(=O)OCC1CCCN(C)C1)(c1ccccc1)c1ccccc1` (centres undefined): 0.73%.

Take `O=C(/C=C/c1ccc(Cl)c(Cl)c1)N1CCC(CN2CCC(c3c[nH]c4cc5c(cc34)OCO5)CC2)CC1`: the IFI is 5.34%.

For `CC(Cc1ccc(SC(C)(C)C)cc1)NCC(O)c1cccc(Cl)c1` (centres undefined), the IFI was found to be 5.07%. In the case of `CC(C)CNCc1cccc(-c2cccc(CN(C(=O)NC3CCCCC3)C3CCN(Cc4ccccc4)CC3)c2)c1` it was 8.15%; in that of `COC(=O)c1ccc(C[C@@H](C)NC[C@H](O)c2cccc(C(F)(F)F)c2)cc1`, 1.5%; in that of `COc1cc(CN2CCN(c3ccnc(N(C)C4CCN(C)CC4)n3)CC2)cc(Cl)c1O`, -0%. The compound `COc1ccc(C(=O)C2CC2CN2CC=C(c3c(C)[nH]c4ccccc34)CC2)cc1` (centres undefined) yielded an IFI of 1.85%. In the case of `O=C(/C=C/c1ccc(Cl)c(Cl)c1)N(Cc1ccccc1)C1CCC(CN2CCC(c3c[nH]c4ccccc34)CC2)CC1` (centres undefined) it was 5.07%. The compound `CN1CC=C(c2csc3ccc(NC(=O)Nc4ccc(-c5ccncc5)c(Cl)c4)cc23)CC1` came in with an IFI of 5.88%. `CC[C@H]1CN2CC[C@H]1C[C@H]2[C@H](O)c1cc(-c2ccc(OC(F)(F)F)cc2)nc2ccc(OC)cc12` yielded an IFI of 8.97%. `NC(=O)c1ccc2[nH]cc(C3CCN(CC4CCC(NC(=O)/C=C/c5ccc(Cl)c(Cl)c5)CC4)CC3)c2c1` (centres undefined): the IFI is 3.57% and 1.43%.

Regarding `CN(C)c1cccc(CN2CC=C(c3c[nH]c4ccc(Cl)cc34)CC2)c1`, the IFI amounted to 10.1%. In the case of `CCCCCCC(C)c1cc(O)c2c(c1)OC(C)(C)c1ccncc1-2` (centres undefined) it was 0.75%.

`CS(=O)(=O)Nc1ccc2[nH]cc(C3CC4CCC(C3)N4CC3CCC(NC(=O)/C=C/c4ccc(Cl)c(Cl)c4)CC3)c2c1` (centres undefined) yielded an IFI of 4.14%. In the case of `CN(C)CCCOc1ccc(CN2CCC(c3c[nH]c4ccc(NCC5CCCCC5)cc34)CC2)cc1` it was 14.1%; in that of `CC(C)NC(=O)Cn1cc(C2CCN(CC3CCN(C(=O)/C=C/c4ccc(Cl)c(Cl)c4)CC3)CC2)c2ccccc21`, 3.33%.

The compound `CC[C@H]1CN2CC[C@H]1C[C@H]2[C@H](O)c1cc(N2CCCC(C(=O)N(CC)CC)C2)nc2ccc(OC)cc12` (some centres undefined) displayed an IFI of 3.08%. Take `COc1cccc(C=CC(=O)NC2CCC(CN3CCC(c4c[nH]c5ccccc45)CC3)CC2)c1OC` (centres undefined): the IFI turned out to be 5.97%. In the case of `Cc1cc(C(=O)NC2CCN(CC3(c4ccc(Cl)cc4)CCC3)CC2)on1` it was -0%; in that of `c1ccc2c(NCCCCCCNc3c4ccccc4nc4ccccc34)c3ccccc3nc2c1`, 9.22%.

Regarding `Cn1nc(-c2ccc(S(=O)(=O)NC3CCC(CN4CCC(c5c[nH]c6ccccc56)CC4)CC3)s2)cc1C(F)(F)F` (centres undefined), the IFI was 5.67% and 7.09%. In turn, `O=C(Cc1c(-c2ccccc2)[nH]c2ccccc12)NC1CCC(CN2CCC(c3c[nH]c4ccccc34)CC2)CC1` (centres undefined) showed an IFI of 10.3%. Consider `Cc1cc(C2CCCCN2C)ccc1-c1ccc(C(=O)N2CCc3cc4c(cc32)C2(CCN(C)CC2)CO4)cc1` (centres undefined), for which the IFI is 8.21%. The same measure for `COC(=O)c1ccc(CC(C)NCC(O)c2ccc(F)c(Cl)c2)cc1` (centres undefined): 2.86%; for `COc1ccc(CC(C)NCC(O)c2cccc(C(F)(F)F)c2)cc1` (centres undefined): 3.76%; for `CCCCc1ccc2[nH]cc(C3=CCN(C)CC3)c2c1Br`: 2.19%. In the case of `CC(Cc1ccc(OCCCCOc2ccccc2)cc1)NCCc1ccccc1Cl` (centres undefined) it was 28%; in that of `COc1cc(NCCCNC(=O)c2cn(Cc3ccccc3)c3ccccc23)nc2ccccc12`, 1.49%. For the compound `CCOc1ccc2nccc([C@@H](O)[C@@H]3C[C@@H]4CCN3C[C@@H]4CC)c2c1`, the IFI was -0% and 0.78%. The same measure for `O=C(/C=C/c1ccc(Cl)c(Cl)c1)N1CCC(CN2CCC(c3c[nH]c4ccc(NS(=O)(=O)c5cccs5)cc34)CC2)CC1`: 6.43%. Turning to `CC(=O)C1(c2ccccc2)CCN(CCC2(c3ccc(Cl)c(Cl)c3)CN(C(=O)Nc3cccc(C(F)(F)F)c3)CCO2)CC1` (centres undefined), the IFI stood at 5.37%. In the case of `COc1ccc(C=CC(=O)NC2CCC(CN3CCC(c4c[nH]c5ccccc45)CC3)CC2)cc1` (centres undefined) it was 7.19% and 5.04%. For the compound `O=C(O)c1ccc2nc(-c3ccc(-c4ccccc4)cc3)n(C3CCN(Cc4ccc(-c5ncc[nH]5)cc4)CC3)c2c1`, the IFI came to 4.08%.

For `COC(=O)c1ccc(CC(C)NCC(O)c2cccc(Br)c2)cc1` (centres undefined), the IFI was 2.84%. In the case of `O=C(/C=C/c1ccc(Cl)c(Cl)c1)NCCCCCN1C2CCC1CC(c1c[nH]c3ccc(O)cc13)C2` (centres undefined), the IFI is 8.03% and 8.82%.

Consider `Oc1ccc(Cl)cc1CN1CCC(CCOC(c2ccccc2)c2ccc(Cl)cc2)CC1` (centres undefined), for which the IFI was found to be 3.13%. The same measure for `CC(=O)N(Cc1ccc(-c2ccc(CNCCc3ccccc3)cc2)cc1)C1CCN(Cc2ccccc2)CC1`: 6.02%; for `CN1CC(c2ccc(Cl)c(Cl)c2)OC1=N` (centres undefined): 3.01%; for `Cc1cc(N(C)C2CCN(C)CC2)nc(Nc2ccc(Br)cc2)n1`: 2.41%.

`O=C(CNC1CCCCC1)c1ccc(O)c(O)c1` came in with an IFI of 9.02%.

`CCCCCCC(C)(C)c1cc(O)c2c(c1)OC(C)(C)c1ccncc1-2` yielded an IFI of 3.05%. Take `O=C(NC1CCN(CC2(c3ccc(Cl)cc3)CCC2)CC1)c1cc[nH]n1`: the IFI was found to be 4.26%. In the case of `COC(=O)c1ccc(CC(C)NCC(O)c2cccc(C(F)(F)F)c2)c(OC)c1` (centres undefined) it was 3.65%; in that of `CN(c1cc(NC(=O)c2ccccc2)ccn1)C1CCN(Cc2cccc(F)c2)CC1`, 2.94%; in that of `Cc1cc(O)cc2c(C3CCN(CC4CCC(NC(=O)/C=C/c5ccccc5Cl)CC4)CC3)c[nH]c12` (centres undefined), 7.3%.

On to `c1ccc(C(OCCC2CCN(Cc3cccnc3)CC2)c2ccccc2)cc1`, for which the IFI amounted to 0.79%. The same measure for `CCN(CC)CCOC(=O)C(OC)(c1ccccc1)c1ccccc1`: 2.21%; for `COC(C(=O)OCCC1CCCN1C)(c1ccccc1)C1CCCCC1` (centres undefined): 1.45%; for `O=C(/C=C/c1cc(C(F)(F)F)ccc1F)NC1CCC(CN2CCC(c3c[nH]c4ccccc34)CC2)CC1` (centres undefined): 2.27%. In the case of `COc1cccc(/C=C/C(=O)NC2CCC(CN3CCC(c4c[nH]c5ccccc45)CC3)CC2)c1` (centres undefined) it was 5.63% and 4.17%.
